Over roughly 1,100 sequences, “thermal melting temperature (Tm) of peptide-HLA complex” has its median near 58; the lowest 2% begin near 42. The list shows a part of the results.
What follows are sequences tested against HLA-A*02:01 (assay: thermal melting temperature (Tm) of peptide-HLA complex; higher = more thermostable pHLA complex). Settings: C1R-A*02:01.
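Further: cell lysates heated 10 min at 37–73 °C, remaining pHLA pulled down with pan-class I antibody, peptides quantified by DIA-MS versus 37 °C, Tm where half the complex is lost.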

Row | Sequence | thermal melting temperature
1 | RLDELGGVYL | 59.5 °C
2 | KLWDIINVNI | 64.2 °C
3 | AQFEHTILL | 58.1 °C
4 | KLLDTMVDTFL | 59.1 °C
5 | SLENKILAV | 63.9 °C
6 | RLLDSEIKI | 57.8 °C
7 | FISERVEVV | 57.6 °C
8 | SLFGSPPTSV | 57 °C
9 | SLLESVQKL | 57.6 °C
10 | RLMNETTAVAL | 55.2 °C
11 | FMFDEKLVTV | 58.5 °C
12 | FTAEFLEKV | 60.1 °C
13 | KLLPYIVGV | 63.2 °C
14 | ALAKPPVVSV | 62.2 °C
15 | KADSVVVLL | 57.9 °C
16 | VLWDRTFSL | 65.3 °C
17 | KMDDPDYWRTV | 60 °C
18 | IQHSEFEEV | 52.1 °C
19 | TLLSNIQGV | 62.3 °C

Row | Sequence | thermal melting temperature
20 | VLDDKLYVV | 61.3 °C
21 | ILLDERGQIKL | 57 °C
22 | TVMGKIFAV | 61.8 °C
23 | GLIGVGLINV | 61.7 °C
24 | NMLPQIFRV | 58.4 °C
25 | HLAELIAEL | 62.4 °C
26 | NIFPNPEATFV | 55.8 °C
27 | FVLPELPSV | 59.5 °C
28 | KVIDEIYRV | 54.5 °C
29 | VLFQGKIGL | 55.8 °C
30 | ALLPQNHKL | 55 °C
31 | VLLESEQFL | 56.7 °C
32 | ALRETVVEV | 52.1 °C
33 | TQILSVPKV | 54.1 °C
34 | VLIDTPGQIEV | 58.6 °C
35 | QLVPALAKV | 58 °C
36 | YLPDIIKDQKA | 55.4 °C
37 | LLLDVPTAAV | 55.9 °C
38 | KLHGVNINV | 60 °C

Row | Sequence | thermal melting temperature
39 | FAIDPHLLLSV | 58.8 °C
40 | VILPTVHEV | 60.9 °C
41 | ILSGVIRSV | 56.6 °C
42 | SLPDFGISYV | 57.3 °C
43 | SLWFKPEEL | 55 °C
44 | TLLESIRQA | 47.4 °C
45 | YLNVQVKEL | 55.7 °C
46 | ILAEEPIYIRV | 58.1 °C
47 | AALEEADKMFL | 53.3 °C
48 | FGYPFRLNEA | 53.6 °C
49 | GLVDKLQAL | 55.6 °C
50 | LMISRTPEV | 57.4 °C
51 | FTQDSNYLL | 49.1 °C
52 | LLAEDDELHL | 44.2 °C
53 | FIDKHIAEL | 59.4 °C
54 | LLQEVEHQL | 57.8 °C
55 | MLFGHPLLV | 57.9 °C
56 | ALDHMVEYV | 53.2 °C

— the supplement of paper PMC7726561
